Assay results: PubChem BioAssay AID361 (National Center for Advancing Translational Sciences (NCATS), 2006)
The whole screen tested about 51,000 compounds, of which about 600 (1.2%) were called active. The shares of active, inactive and inconclusive entries below differ from those in the screen. No stated cut-off is given here; in the data, active means potency below about 11 µM; inconclusive means mostly about 12 µM to 25 µM; inactive means weaker than that;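 the screen sought inhibitors and activators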. Potencies of inconclusive entries are left out as doubtful fits.

Tested on: pyruvate kinase (Bacillus stearothermophilus)
Test: Pyruvate Kinase
Conditions: purified pyruvate kinase, luminescence ATP production; ribose 5-phosphate activator present at AC10
In short: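 Compounds were mixed with substrate buffer (pH 7.2, 2 mM PEP, 0.1 mM ADP, 0.7 nM ribose 5-phosphate) and then with 10 nM enzyme. After 2 h at room temperature, a luciferase stop/detection reagent was added and luminescence measured.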
Potency means the concentration at half of the fitted maximal effect.

| Structure (SMILES) | Potency |
| --- | --- |
| CCCOc1ccc(-c2nc(C#N)c(N3CCN(CC)CC3)o2)cc1 | active: 5.78 µM |
| Cc1ccc(-n2nc(C(=O)N3CCN(C)CC3)c3c4ccccc4n(C)c3c2=O)cc1 | inactive: > 57 µM |
| CCOC(=O)CC(=O)CSc1nc2c(c(C)c1C#N)CCC2 | inconclusive [decreasing] |
| CCNC(=O)CCc1nc(-c2ccc(C(C)(C)C)cc2)no1 | inconclusive [decreasing] |
| COC(=O)c1cc2c([nH]c3ccccc32)c(C)n1 | inconclusive [decreasing] |
| CC(=O)C1=C(O)C(=O)N(CCN2CCOCC2)C1c1ccc(N(C)C)cc1 (configuration not stated) | inconclusive [increasing] |
| O=C(Nc1ccc2c(c1)oc1ccccc12)N1CCOCC1 | inconclusive [decreasing] |
| CC(=O)c1cccc(NC(=O)c2ccco2)c1 | inactive: > 57 µM |
| Cc1ccc(S(=O)(=O)N2CCN(C(=O)c3cccc(F)c3)CC2)cc1 | inconclusive [increasing] |
| Cc1ccc2nc(-c3ccccn3)cc(C(=O)N3CCN(c4ncccn4)CC3)c2c1 | inactive: > 57 µM |
| CCN(CCCNC(=O)CN(C)S(=O)(=O)c1cccc2nsnc12)c1ccccc1 | inconclusive [increasing] |
| CC(C)(C)OC(=O)N1CCC[C@H]1c1nnc(SCc2c(F)cccc2Cl)o1 | inconclusive [increasing] |
| Cc1cccc(NC(=O)c2cc3ccccc3o2)c1 | inconclusive [decreasing] |
| COc1ccc(-c2cc3n(n2)CCc2nc4ccccc4n2-3)cc1 | active: 1.66 µM |
| CC(C)(C)OC(=O)NCCc1nnc(SCc2ccccc2Cl)o1 | inconclusive [increasing] |
| CSc1nc2sc3c(c2c(=O)n1C1CCCCC1)CCN(C)C3 | inactive: > 25.6 µM |
| CCc1ccc2[nH]c(=O)c(CN(CCCN3CCOCC3)C(=O)Nc3ccc(F)cc3)cc2c1 | inconclusive [decreasing] |
| Cc1cc2nn(-c3ccccc3)nc2cc1NC(=O)c1cccs1 | active: 2.29 µM |
| Cc1cnn(-c2nc(-c3cccs3)cc(C(F)(F)F)n2)c1 | inconclusive [decreasing] |
| CCOc1ccc(OCc2cccc(C(=O)N3CCOCC3)c2)cc1 | active: 8.48 µM |
| O=C(Nc1nc2ccccc2[nH]1)c1ccccc1F | active: 1.36 µM |

| Structure (SMILES) | Potency |
| --- | --- |
| CC(C)C1O/C(=N/C(=O)Nc2ccc(Cl)c(Cl)c2)NC1=O (configuration not stated) | inconclusive [increasing] |
| Clc1ccc(-c2nn3cnnc3s2)c(Cl)c1 | active: 10.3 µM |
| COc1ccccc1OCCCn1c(C)c(C#N)c2ccccc21 | inconclusive [increasing] |
| CCOC(=O)C(CC)Sc1nnc2n1C(C)(C)Cc1ccccc1-2 (configuration not stated) | inactive: > 57 µM |
| COC(=O)c1[nH]c2cccc(OC)c2c1NC(=O)CCN1CCC(C)CC1 | inactive: > 57 µM |
| COc1ccc(Cl)cc1CSc1n[nH]c(C)n1 | inconclusive [increasing] |
| COc1ccc2cc3c(N)c(C(=O)N4CCCC4)sc3nc2c1 | inconclusive [decreasing] |
| CCCC(c1nnnn1Cc1ccccc1)N1CCN(c2ccccc2OC)CC1 (configuration not stated) | inactive: > 57 µM |
| N=c1n(CCO)c2ccccc2n1CCOc1ccccc1 | inactive: > 57 µM |
| Cc1ccnc(Nc2nc(-c3c(C)nc4sccn34)cs2)c1 | active: 10.8 µM |
| N#C[C@@H]1[C@@H]2C(=O)N(c3ccc4c(c3)OCCO4)C(=O)[C@@H]2C2c3ccccc3C=CN21 (some centres not stated) | inconclusive [increasing] |
| CC(=O)N1CCc2cc(S(=O)(=O)NCCC(=O)NC3CCCc4ccccc43)ccc21 (configuration not stated) | inconclusive [increasing] |
| O=C(C1CCCN(S(=O)(=O)c2ccc(F)cc2)C1)N(Cc1cccs1)C1CC1 (configuration not stated) | inconclusive [increasing] |
| CCC(=O)Nc1cccc(-c2nc3ccccc3c(=O)o2)c1 | inconclusive [decreasing] |
| NC(=O)c1sc2nc3c(c(-c4ccco4)c2c1N)CCC3 | inconclusive [decreasing] |
| CC(=O)c1cccc(NC(=O)CN2C(=O)COc3ccc(Cl)cc32)c1 | inconclusive [increasing] |
| COc1cccc(-c2noc(-c3cccs3)n2)c1 | inconclusive [decreasing] |
| Cn1c(SCC(=O)NCc2ccco2)nc2ccccc2c1=O | inactive: > 57 µM |
| C/C(Cl)=C\Cn1c(N2CCCC2)nc2c1c(=O)[nH]c(=O)n2C | inactive: > 57 µM |
| CC(C)NC(=O)Cn1nnc(-c2cccc(NC(=O)c3ccccc3F)c2)n1 | inactive: > 57 µM |
| C=CCn1c(SCn2nnc3ccccc3c2=O)nnc1-c1ccc(Cl)cc1 | inconclusive [increasing] |

| Structure (SMILES) | Potency |
| --- | --- |
| CCOC(=O)N1CCN(C(=O)c2cc(-c3ccc(OCC)cc3)nc3ccccc23)CC1 | active: 1.06 µM |
| CCOc1ccc2nc(NCCNC(=O)Nc3cccc(C)c3)c(C#N)cc2c1 | inactive: > 57 µM |
| CSc1ccccc1NC(=O)CN(c1cc(C)cc(C)c1)S(C)(=O)=O | inconclusive [increasing] |
| N#Cc1nc(Cc2ccccc2)oc1NCc1ccccc1Cl | inconclusive [increasing] |
| Cc1cc(NC(=O)CSc2nnc(COc3ccccc3)n2Cc2ccco2)no1 | inactive: > 57 µM |
| O=C(CSc1nnc(-c2ccccc2Br)o1)N1CCc2ccccc2C1 | inconclusive [increasing] |
| CCC(=O)Nc1nc2ccccc2n1CCN(C)C | inactive: > 25.6 µM |
| COc1ccc2cc(C(=O)OC(C)C)sc(=O)c2c1OC | inactive: > 57 µM |
| Cc1csc(NC(=O)CCS(=O)(=O)c2ccc(Br)cc2)n1 | inconclusive [increasing] |
| O=S(=O)(NCCSc1ccccc1)c1ccc(F)cc1 | inconclusive [increasing] |
| COc1ccc(C(=O)NC(=O)Nc2cc(C)ccn2)cc1 | active: 0.635 µM |
| Cc1ccc(NCc2nc3ccccc3n2C)cc1 | inconclusive [decreasing] |
| Cc1nn(Cc2ccc(Cl)c(Cl)c2)c(C)c1NC(=O)c1noc2c1CCCCC2 | inconclusive [increasing] |
| O=C(O)CN1CCOCCOCCN(CC(=O)O)CCOCCOCC1 | inactive: > 57 µM |
| O=C(Cc1coc2ccc3ccccc3c12)N1CCCC1 | inconclusive [increasing] |
| CCOC(=O)c1c(C)nc2c3ccccc3ccn12 | active: 6.85 µM |
| Cc1ccc(S(=O)(=O)c2nc(-c3ccccc3)oc2NCc2cccnc2)cc1 | inconclusive [increasing] |
| Brc1ccc2oc3c(N4CCOCC4)ncnc3c2c1 | inconclusive [decreasing] |
| Cc1ccccc1S(=O)(=O)Nc1nc2ccccc2nc1N1CCOCC1 | inactive: > 57 µM |
| CCN1CCN(C(=O)c2cc3c(=O)n4ccccc4nc3n2Cc2ccccc2)CC1 | inconclusive [decreasing] |
| C=CCn1c(COc2cccc3ccc(C)nc23)nnc1SCC(N)=O | inconclusive [increasing] |

| Structure (SMILES) | Potency |
| --- | --- |
| O=S(=O)(c1ccc(Cl)cc1Br)N1CCCCC1 | inconclusive [increasing] |
| COc1cc(C)c(S(=O)(=O)N2CCCC2)cc1C | inconclusive [increasing] |
| O=C(CSc1ncn[nH]1)Nc1cccc2ccccc12 | inconclusive [increasing] |
| COc1ccc(S(=O)(=O)N2CCC(C(N)=O)CC2)c2ccccc12 | inconclusive [increasing] |
| Cc1cc(SCC(=O)NC(=O)NCc2ccco2)nc2ccccc12 | inconclusive [increasing] |
| Cc1cc(C)c(NC(=O)NC(=O)c2cccc(F)c2)c(C)n1 | inactive: > 57 µM |
| Cc1cc(NCCCn2ccnc2)n2nc(-c3ccc(F)cc3)cc2n1 | inconclusive [decreasing] |
| O=S(=O)(Nc1ccc2c(c1)OCCO2)c1ccc(Br)s1 | inconclusive [increasing] |
| Cc1ccc(C)c(Cn2cnc3c(cnn3C(C)(C)C)c2=O)c1 | inconclusive [increasing] |
| Cn1c(C(O)c2ccc(Cl)cc2)nc(Cl)c1Cl (configuration not stated) | inconclusive [increasing] |
| CN(C)C=Nc1ncc2c3ccccc3n(CCN(C)C)c2c1C#N | inconclusive [decreasing] |
| COC(=O)CCS(=O)(=O)c1ccc(Cl)c(Cl)c1 | inconclusive [increasing] |
| O=C(O)c1ccccc1NS(=O)(=O)c1ccccc1C(F)(F)F | inactive: > 57 µM |
| COc1ccc(C(CC(=O)NC(C)(C)C)n2cccc2)cc1 (configuration not stated) | inactive: > 57 µM |
| CCSc1nc(-c2ccc(OC)cc2)n(-c2nc3ccccc3s2)n1 | inactive: > 57 µM |
| Cc1ccc(S(=O)(=O)N2Cc3ccccc3CC2C(=O)Nn2cnnc2)cc1 (configuration not stated) | inconclusive [increasing] |
| CN1C(=O)C2(C(C#N)=C(N)Oc3c2oc(CO)cc3=O)c2ccccc21 (configuration not stated) | inactive: > 57 µM |
| CC(=O)Nc1coc2ccc(Br)cc12 | inconclusive [increasing] |
| Cc1cc(Cl)cc(Br)c1OCCCCn1cncn1 | inconclusive [increasing] |
